Source: PubChem BioAssay AID602310 (National Center for Advancing Translational Sciences (NCATS), 2012)
The whole screen tested about 410,000 compounds, of which about 310 (0.076%) were called active. Inconclusive results, whose numbers are uncertain, are shown with a selection of clear calls. Calls come from the whole dose curve; as a rule, active = well fitted curve in the direction sought with a large enough effect; inconclusive = small, poorly fitted or top-dose-only effect; inactive = flat fitted curve, though single readings scatter. A potency beside an inconclusive call is a rough fit, not a confirmed value.

These compounds were tested against DNA dC->dU-editing enzyme APOBEC-3G (Homo sapiens) (UniProt Q9HC16) (assay: qHTS for Inhibitors of Vif-A3G Interactions: qHTS). Settings: HeLa A3G-eYFP + Vif (tagged APOBEC3G with the HIV-1 protein that degrades it), YFP fluorescence, overnight; series mostly up to 46.1 µM; activity, negative = active: at the top concentration.
Method in brief: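 HeLa cells stably expressing Vif and C-terminally eYFP-tagged A3G, seeded overnight at 37 deg C, then exposed to compound by pintool overnight at 37 deg C. Rise in yellow fluorescence (Ex 488/Em 500-530, Acumen) marks blocked Vif-driven A3G degradation.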
% is set by controls: 0 for no effect and ±100 for the full control effect; potency is the fitted concentration of half-maximal effect; tags give direction and shape of the fitted curve.
Note: nearly all actives have a fitted effect of over 60% in size.
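Throughout, for activity, negative = active: hits raise eYFP signal because A3G escapes Vif-driven loss.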

UniProt Q9HC16, sequence (Q9HC16 whole entry, looked up): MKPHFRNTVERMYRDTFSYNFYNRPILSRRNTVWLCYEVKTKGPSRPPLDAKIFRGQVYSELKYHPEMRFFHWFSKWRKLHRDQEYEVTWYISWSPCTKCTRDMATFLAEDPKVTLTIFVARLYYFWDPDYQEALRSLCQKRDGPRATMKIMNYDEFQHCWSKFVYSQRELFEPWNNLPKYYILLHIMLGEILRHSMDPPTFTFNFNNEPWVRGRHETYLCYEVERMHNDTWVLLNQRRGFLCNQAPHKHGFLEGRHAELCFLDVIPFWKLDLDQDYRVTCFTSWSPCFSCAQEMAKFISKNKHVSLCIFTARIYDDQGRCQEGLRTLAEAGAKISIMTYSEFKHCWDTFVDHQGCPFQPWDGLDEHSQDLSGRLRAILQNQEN

Compound	Potency	activity, negative = active
Cc1ccc(NC(=S)NNC(=S)Nc2ccc(C)cc2C)cc1	inconclusive: 4.47 µM [inhibitor, full curve]	
O=c1cc(N2CCCCC2)c(-c2ccccc2)nn1Cc1ccc(Cl)cc1		inactive: -6.73%
O=C(Cn1cc(/C=C\[N+](=O)[O-])c2ccccc21)Nc1ccccc1	inconclusive: 35.5 µM [inhibitor, single point]	
Cc1[nH]nc2nc(SCC(=O)NCCC3=CCCCC3)n(-c3ccc(Br)cc3)c(=N)c12	inconclusive: 22.4 µM [inhibitor, single point]	
NNc1nc2ccc(F)cc2s1		inactive: 1.11%
COc1cc2c(cc1OC)C(C1C(=O)CC(C)(C)CC1=O)N(C(=O)CCl)CC2 (centres undefined)	inconclusive: 35.5 µM [inhibitor, partial curve, poor fit]	
Nc1nonc1-c1nc2ccccc2n1CC(=O)Nc1cccc(C(F)(F)F)c1	inconclusive: 22.4 µM [inhibitor, single point]	
Cc1cc(C)n(-c2cc(C(C)(C)C)nc3c(-c4ccccc4)cnn23)n1		inactive: 1.11%
CSC1=NC(C(Cl)(Cl)Cl)N=C(c2ccc(C)cc2)N1 (centres undefined)	inconclusive: 0.562 µM [inhibitor, full curve, poor fit]	
CCOC(=O)c1[nH]c(C)c(C(=O)Nc2cccc(Cl)c2C)c1C	inconclusive: 7.08 µM [inhibitor, partial curve]	
CCOc1ccc(/C=C/c2nc(C#N)c(NCc3ccc(OC)cc3)o2)cc1		inactive: -7%
COc1cc2nc(=S)n3[nH]c(COc4ccccc4C)nc3c2cc1OC		inactive: 2.63%
COc1ccc(CCNC(=O)COC(=O)CNS(=O)(=O)c2ccc(SC)c([N+](=O)[O-])c2)cc1		inactive: 9.28%
Oc1sc(C=Nc2ccc(F)cc2)c2ccccc12	inconclusive: 2.82 µM [inhibitor, full curve]	
CN1CCN(C(c2ccc(Cl)cc2)c2cc(Cl)c3cccnc3c2O)CC1 (centres undefined)	inconclusive: 15.8 µM [inhibitor, single point]	
C[C@@H]1C[C@H]2[C@@H]3CCC4=CC(=O)C=C[C@]4(C)[C@@]3(F)C(O)C[C@]2(C)[C@@]1(O)C(=O)CO (some centres undefined)		inactive: 0.522%
COc1ccc2c(c1)c(CC(=O)O)c(C)n2Cc1ccc(Cl)cc1	inconclusive: 22.4 µM [inhibitor, single point]	
CC(C)(C)OC(=O)N[C@@H](Cc1ccccc1)c1nnc(SCC(N)=O)o1		inactive: 0.822%
CC(=O)Nc1cc(-c2ccccc2N(C)C)cn2c(-c3ccc(S(C)(=O)=O)cc3)cnc12		inactive: -4.15%
COc1ccc(/C(=N/Nc2ncnc3ccccc23)C(=O)O)cc1	inconclusive: 17.8 µM [inhibitor, single point]	
COc1ccc(NC(=S)N/N=C/c2ccc(F)c(F)c2)cc1	inconclusive: 25.1 µM [inhibitor, single point]	
NNC(=O)c1cc(-c2cccs2)nc2ccccc12	inconclusive: 7.08 µM [inhibitor, full curve, poor fit]	
CCCn1c(=NC(=O)c2ccco2)c(C(=O)OCC)cc2c(=O)n3ccccc3nc21		inactive: 1.72%

Compound	Potency	activity, negative = active
Cc1ccccc1OCC(=O)N/N=C/c1ccccn1		inactive: -6.08%
O=C(/C=C/c1ccco1)NC(=S)Nc1cccc(-c2nc3ccccc3o2)c1	inconclusive: 1.41 µM [inhibitor, full curve, poor fit]	
COc1cc(Cl)c(C)cc1Nc1nc2ccccc2nc1NS(=O)(=O)c1ccccc1	inconclusive: 10 µM [inhibitor, partial curve, poor fit]	
CC(=O)Nc1cc(-c2cccc(NS(C)(=O)=O)c2)cn2c(-c3cccc(C(C)=O)c3)cnc12	inconclusive: 25.1 µM [inhibitor, single point]	
COc1ccc(NC(=O)C2(C)Cc3c(-c4cccc(NC(C)=O)c4)ccnc3O2)cn1 (centres undefined)	inconclusive: 1.78 µM [inhibitor, partial curve, poor fit]	
CC(=O)Nc1ccc(-c2ccnc3c2CC(C(=O)Nc2ccc4c(c2)OCO4)O3)cc1 (centres undefined)	inconclusive: 7.94 µM [inhibitor, partial curve, poor fit]	
O=C(NN1C(=O)c2ccccc2NC1c1ccc([N+](=O)[O-])o1)c1ccc([N+](=O)[O-])cc1 (centres undefined)	inconclusive: 25.1 µM [inhibitor, single point]	
COc1cccc2c1nc(C)c1cc(C)oc12		inactive: 5.57%
COc1ccc(NC(=O)C2Cc3c(-c4cccc(F)c4)ccnc3O2)cc1 (centres undefined)	inconclusive: 15.8 µM [inhibitor, single point]	
O=C(N/N=C/c1c[nH]c2ccccc12)c1cc(-c2ccc3ccccc3c2)n[nH]1	inconclusive: 2.82 µM [inhibitor, partial curve, poor fit]	
COc1ccccc1NC(=S)N(Cc1ccco1)Cc1cc2cc(C)c(C)cc2[nH]c1=O	inconclusive: 0.891 µM [inhibitor, full curve, poor fit]	
O=C(/C=C/c1ccccc1Cl)Nc1ccncc1		inactive: -3.41%
C1=Cc2ccccc2/C1=C\c1cc2c3c(c1)CCCN3CCC2	inconclusive: 6.31 µM [inhibitor, partial curve]	
Cc1ccc(S(=O)(=O)N(C)c2ccc3sc(C)nc3c2)cc1	inconclusive: 11.2 µM [inhibitor, partial curve, poor fit]	
O=S(=O)(c1cccc(C(F)(F)F)c1)N1CCN(c2nc(-c3cccs3)nc3cc(Cl)ccc23)CC1		inactive: 0.965%
CC(C)N=C1CCCC1C(=S)SSC(=S)C1CCCC1=NC(C)C (centres undefined)	inconclusive: 35.5 µM [inhibitor, single point]	
O=C(N/N=C/c1cccs1)c1cc(C2CC2)nc2ccccc12	inconclusive: 5.62 µM [inhibitor, full curve, poor fit]	
O=C(NCc1ccccc1)c1noc2c1CCCC2	inconclusive: 35.5 µM [inhibitor, single point]	
CCCCn1c(N)c(N(Cc2ccccc2OC)C(=O)C(C)Oc2ccc(F)cc2)c(=O)[nH]c1=O (centres undefined)		inactive: 3.03%
CSc1nc2c(=S)[nH]c(=S)[nH]c2s1		inactive: -0.229%
Cc1cc(C)nc(Nc2n[nH]c(COc3cccc4ccccc34)n2)n1	inconclusive: 6.31 µM [inhibitor, partial curve, poor fit]	
COc1ccc2c(c1)/C(=C/c1cc(OC)c(OC)c(OC)c1)C(=O)N2	inconclusive: 1.26 µM [inhibitor, full curve, poor fit]	
C=CCSc1ccccc1C(=O)Nc1ncn[nH]1		inactive: 0.71%

Compound	Potency	activity, negative = active
CCCCn1c(CN2CCN(c3cccc(Cl)c3)CC2)nc2c1c(=O)[nH]c(=O)n2C	inconclusive: 1.41 µM [inhibitor, full curve, poor fit]	
C=CCNc1sc(C(=O)c2cccs2)c(N)c1C#N	inconclusive: 35.5 µM [inhibitor, single point]	
CCc1nc2c(OCCC3CCCCC3)cccn2c1N(C)C(=O)c1ccc(C)cc1	inconclusive: 31.6 µM [inhibitor, single point]	
CNCC(O)Cn1c2c(c3ccccc31)CCCC2 (centres undefined)	inconclusive: 7.94 µM [inhibitor, partial curve, poor fit]	
CCN(C(=O)c1cc2c(C)nc3ccccc3c2o1)c1cc(Cl)ccc1OC		inactive: -11.1%
Cc1nc(SCC(=O)Nc2ccccc2)c2oc3ccccc3c2n1		inactive: 0.707%
S=C1SCN(Cc2cccnc2)CN1Cc1cccnc1	inconclusive: 5.62 µM [inhibitor, single point]	
Cc1[nH]nc(N=CC2=C(O)CC(C)(C)CC2=O)c1-c1ccc(Cl)cc1	inactive	
O=c1c(Cl)c(Cl)cnn1-c1ccccc1	inconclusive: 25.1 µM [inhibitor, single point]	
Cc1nc(C)c(C(=O)N/N=C/c2cn(C)c3ccccc23)s1	inconclusive: 15.8 µM [inhibitor, single point]	
Cc1nnc(N2C(=O)c3cccc4c([N+](=O)[O-])ccc(c34)C2=O)s1	inconclusive: 14.1 µM [inhibitor, partial curve, poor fit]	
Cc1ccc(C(=O)Nc2nnc(CC(=O)N/N=C/c3ccncc3)s2)cc1		inactive: -0.13%
Cc1cc(-c2ccc(S(=O)(=O)Nc3ccccc3F)s2)on1	inconclusive: 31.6 µM [inhibitor, single point]	
Cc1ccc(Cl)c2c1NC(=O)C2(O)CC(=O)c1ccc(Br)cc1 (centres undefined)		inactive: -0.131%
CC(=O)Nc1ccc(Nc2nc(C)c([N+](=O)[O-])c(Nc3ccccc3)n2)cc1	inconclusive: 35.5 µM [inhibitor, single point]	
COc1cccc(C(=O)N/N=C/C(Br)=C/c2ccccc2)c1	inconclusive: 7.08 µM [inhibitor, partial curve, poor fit]	
O=C(Nc1ccn(Cc2c(F)c(F)c(F)c(F)c2F)n1)c1cccc(Cn2cc([N+](=O)[O-])cn2)c1	inconclusive: 28.2 µM [inhibitor, single point]	
O=c1c(Cl)c(Cl)cnn1Cc1nnc(-c2ccc(Cl)cc2)o1	inconclusive: 15.8 µM [inhibitor, single point]	
CN(CC(=O)Nc1ccc(Cl)c(C(F)(F)F)c1)C(=O)CCCNC(=O)c1ccc(Cl)cc1		inactive: -1.12%
Cc1ccc(-c2nc(CS(=O)(=O)CC(=O)NC3CCCCCC3)c(C)o2)cc1		inactive: 3.33%
COc1ccc2nc(N3CCC(C)CC3)c(C#N)cc2c1		inactive: -0.349%
O=C(Nc1ncccn1)c1ccc(Cl)c([N+](=O)[O-])c1	inconclusive: 28.2 µM [inhibitor, single point]	
C=C1C(=O)[C@@]23[C@H](O)C[C@@H]4C(C)(C)CC[C@H](O)[C@@]4(C)[C@@H]2CC[C@@H]1[C@H]3O	inconclusive: 3.16 µM [inhibitor, full curve, poor fit]	
